Data published in the supplement of paper PMC4967469.
Lines with a small IC50 respond at low doses; where the fit passes the top or lowest dose, that dose stands as a limit. AUC, from the same fit, is the share of area under the viability curve across the 256-fold dose range; the more sensitive the line, the further below 1. For some assays here: A top dose marked as inferred was calculated from the reported fits. For some assays here: Where an entry number is given, a second screen of the drug exists; the two often differ.

Key:
Experiment in all cases: Viability of human cancer cell lines after 72 h of drug (GDSC screen)
KIN001-270 = compound: Cc1ccc(Nc2cc(-c3cccc(N4C(=O)c5ccccc5C4=O)c3)ncn2)cc1NS(C)(=O)=O [KIN001-270]; conditions: top dose 20 µM; top dose inferred
Procedure: (§1)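 Human cancer cell lines in 384-well plates, medium with 10% serum, drug for 72 h over a 256-fold dose range (nine 2-fold or five 4-fold steps up to the top dose). Adherent lines were fixed and stained with the nucleic acid dye Syto60, suspension lines read with resazurin; signal relative to control wells, capped at 0 and 100%. One two-parameter sigmoid per drug and line, fitted in a mixed model over all curves with the slope shared within a line.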

T0901317 = compound: O=S(=O)(c1ccccc1)N(CC(F)(F)F)c1ccc(C(O)(C(F)(F)F)C(F)(F)F)cc1 [T0901317]; conditions: top dose 10.24 µM; top dose inferred
Procedure: as §1

TW-37 = compound: CC(C)c1ccccc1Cc1cc(C(=O)Nc2ccc(S(=O)(=O)c3ccccc3C(C)(C)C)cc2)c(O)c(O)c1O [TW-37]; conditions: top dose 5 µM
Procedure: as §1

Gemcitabine = compound: Nc1ccn([C@@H]2O[C@H](CO)[C@@H](O)C2(F)F)c(=O)n1 [Gemcitabine]; conditions: top dose 1.024 µM
Procedure: as §1

MP470 = compound: S=C(NCc1ccc2c(c1)OCO2)N1CCN(c2ncnc3c2oc2ccccc23)CC1 [MP470]; conditions: top dose 20 µM; top dose inferred
Procedure: as §1

LFM-A13 = compound: C/C(O)=C(\C#N)C(=O)Nc1cc(Br)ccc1Br [LFM-A13]; conditions: top dose 16 µM; top dose inferred
Procedure: as §1

Nilotinib = compound: Cc1cn(-c2cc(NC(=O)c3ccc(C)c(Nc4nccc(-c5cccnc5)n4)c3)cc(C(F)(F)F)c2)cn1 [Nilotinib]; conditions: top dose 2 µM
Procedure: as §1

AUY922 = compound: CCNC(=O)c1noc(-c2cc(C(C)C)c(O)cc2O)c1-c1ccc(CN2CCOCC2)cc1 [AUY922]; conditions: top dose 0.256 µM; top dose inferred
Procedure: as §1

Bicalutamide = compound: CC(O)(CS(=O)(=O)c1ccc(F)cc1)C(=O)Nc1ccc(C#N)c(C(F)(F)F)c1 [Bicalutamide]; conditions: top dose inferred
Procedure: as §1

[1] = top dose 1.024 µM, screen: GDSC drug entry 150
[2] = top dose 10 µM, screen: GDSC drug entry 1502

Cell Line	AUC (KIN001-270)	IC50 (KIN001-270) [nM]	AUC (T0901317)	IC50 (T0901317) [nM]	AUC (TW-37)	IC50 (TW-37) [nM]	AUC (Gemcitabine)	IC50 (Gemcitabine) [nM]	AUC (MP470)	IC50 (MP470) [nM]	AUC (LFM-A13)	IC50 (LFM-A13) [nM]	AUC (Nilotinib)	IC50 (Nilotinib) [nM]	AUC (AUY922)	IC50 (AUY922) [nM]	AUC (Bicalutamide; [1])	IC50 (Bicalutamide; [1]) [nM]	AUC (Bicalutamide; [2])	IC50 (Bicalutamide; [2]) [nM]
HCC-15 (lung squamous cell carcinoma, adherent)	0.978	> 20000	0.961	> 10200	0.608	673	0.682	241	0.972	> 20000	0.936	> 16000	0.919	> 2000	0.654	48.7	0.981	> 1020	0.96	> 10000
8305C (thyroid, adherent)	0.981	> 20000	0.982	> 10200	0.796	3200	0.335	19.2	0.979	> 20000	0.968	> 16000	0.982	> 2000	0.449	11.1	0.971	> 1020	0.966	> 10000
T98G (glioma, adherent)	0.976	> 20000	0.974	> 10200	0.631	696	0.746	304	0.962	> 20000	0.982	> 16000	0.902	> 2000	0.635	36.6	0.99	> 1020	0.972	> 10000
SW1783 (glioma, adherent)	0.991	> 20000	0.981	> 10200	0.451	232	0.055	< 4	0.977	> 20000	0.99	> 16000	0.991	> 2000	0.345	6.23	0.991	> 1020	–	–
639-V (bladder, adherent)	0.977	> 20000	0.986	> 10200	0.615	616	0.727	251	0.987	> 20000	0.978	> 16000	0.987	> 2000	0.333	5.93	0.99	> 1020	0.989	> 10000
Saos-2 (osteosarcoma, adherent)	0.981	> 20000	0.981	> 10200	0.563	501	0.949	> 1020	0.98	> 20000	0.929	> 16000	0.981	> 2000	0.665	56.1	0.977	> 1020	0.957	> 10000
NCI-H810 (large cell lung carcinoma, adherent)	0.938	> 20000	0.983	> 10200	0.618	649	0.263	14	0.851	14300	0.947	> 16000	0.988	> 2000	0.49	15	0.987	> 1020	0.982	> 10000
JHH-4 (liver, adherent)	0.865	17600	0.985	> 10200	0.641	763	0.212	9.18	0.908	> 20000	0.983	> 16000	0.984	> 2000	0.987	> 256	0.981	> 1020	0.975	> 10000
DMS-273 (small cell lung carcinoma, adherent)	0.91	> 20000	0.937	> 10200	0.298	81.2	0.296	16.4	0.744	6580	0.968	> 16000	0.983	> 2000	0.633	38.1	0.982	> 1020	–	–
MC-IXC (neuroblastoma, adherent)	0.99	> 20000	0.919	8010	0.332	122	0.119	6.88	0.906	14000	0.996	> 16000	0.996	> 2000	0.566	23.1	0.996	> 1020	0.993	> 10000
SCC-25 (head and neck, adherent)	0.916	> 20000	0.949	> 10200	0.592	578	0.706	265	0.906	> 20000	0.974	> 16000	0.983	> 2000	0.805	150	0.921	> 1020	0.952	> 10000
OV-90 (ovary, adherent)	0.963	> 20000	0.975	> 10200	0.478	268	0.458	47.6	0.914	> 20000	0.963	> 16000	0.908	> 2000	0.879	> 256	0.982	> 1020	0.956	> 10000
